Source: the supplement of paper PMC4166925
± gives the standard deviation of the averaged measurements. The full ranking holds about 33,000 sequences; the median of “E-score (dimensionless, -0.5 to 0.5)” is about -0.046, and the highest 2% start at about 0.36. The list shows a part of the results.

These sequences were tested on T1, SpTbr T-box DNA-binding domain (GST fusion) (assay: PBM E-score of 8-mer (E-score (dimensionless, -0.5 to 0.5)); Tbr is Tbrain of the sea star Patiria miniata (Pm) or the sea urchin Strongylocentrotus purpuratus (Sp); higher = stronger binding preference; most listed sequences are background and not binding sites). Conditions: the construct has about 5 more residues each side.
T1 sequence: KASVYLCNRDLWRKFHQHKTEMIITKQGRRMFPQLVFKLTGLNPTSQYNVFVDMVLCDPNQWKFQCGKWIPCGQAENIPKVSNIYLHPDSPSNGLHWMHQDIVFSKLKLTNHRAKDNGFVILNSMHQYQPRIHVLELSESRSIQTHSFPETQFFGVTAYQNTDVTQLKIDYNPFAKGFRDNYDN
Procedure, shortened: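 Universal Agilent oligonucleotide arrays, made double-stranded by primer extension, were incubated with 200 nM GST-fused Tbr T-box DNA-binding domain in PBS (pH 7.5). The protein was expressed in BL21 E. coli at 20 °C and purified by glutathione affinity chromatography. After scanning and quantification, the Universal PBM Analysis Suite assigned an enrichment E-score to each ungapped 8-mer, averaged over duplicate arrays.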

In order of falling “PBM E-score of 8-mer” value:
1. TGTTAACA  0.421 ± 0.029
2. TGTGACAA  0.412 ± 0.0055
3. ACACTTGC  0.4 ± 0.0054
4. GGCGTGAC  0.388 ± 0.0071
5. GTTCACAA  0.376 ± 0.02
6. ACGTGTCG  0.362 ± 0.015
7. ACACACAT  0.328 ± 0.0053
8. CACCCACA  0.324 ± 0.021
9. GCTGCGAA  0.313 ± 0.032
10. AATTGTCA  0.304 ± 0.024
11. TGCGACAA  0.271 ± 0.022
12. CGAGCTAA  0.218 ± 0.021
13. CGACACAA  0.185 ± 0.03
14. AAGCGTGG  0.179 ± 0.047
15. CACCACGC  0.131 ± 0.015
16. CTCTAGCA  0.129 ± 0.066
17. ACCCCTCC  0.128 ± 0.0024
18. ACAGTTGG  0.115 ± 0.033
19. CGTATCAC  0.112 ± 0.044
20. GGTAACGA  0.111 ± 0.056
21. ACCGATTG  0.107 ± 0.057
22. AATCACAT  0.106 ± 0.032
23. AAAAAAAA  0.103 ± 0.05
24. GCCGGGTA  0.0891 ± 0.031
25. CAGTTGAG  0.0875 ± 0.061
26. AGATCACT  0.0864 ± 0.014
27. GCTACTAA  0.0806 ± 0.056
28. CTAGCAAA  0.0704 ± 0.029
29. TCCACAAA  0.0699 ± 0.025
30. ACGTATGA  0.0677 ± 0.042
31. CCTAGTGC  0.0674 ± 0.05
32. GAAAGCTA  0.0619 ± 0.019
33. CAGCGGGG  0.0563 ± 0.014
34. CAGATAGC  0.0549 ± 0.054
35. AGGTCGTC  0.0482 ± 0.017
36. AGGGGTAG  0.0405 ± 0.049
37. ACAGCAAC  0.0392 ± 0.021
38. AGACAGTA  0.0382 ± 0.012
39. ATGGTCGC  0.0349 ± 0.097
40. GAAGAGGC  0.029 ± 0.065
41. GACACGGA  0.0274 ± 0.051
42. CTTACCCA  0.027 ± 0.0023
43. GATGCAAA  0.0247 ± 0.033
44. AGACGGCT  0.0187 ± 0.012
45. ATAGCATA  0.0174 ± 0.034
46. TGCTCAAA  0.017 ± 0.039
47. GCTGAGAC  0.0168 ± 0.031
48. AGAACGCT  0.0167 ± 0.0058
49. GACTCTCA  0.0161 ± 0.056
50. CTGGCATA  0.0157 ± 0.043
51. AAAACGGA  0.0046 ± 0.028
52. ACGATTTA  0.00131 ± 0.068
53. ACTTTTAG  4e-05 ± 0.067
54. GTATAACA  -0.00134 ± 0.0064
55. GCTAATGA  -0.00374 ± 0.023
56. ATTATCGA  -0.0078 ± 0.054
57. GAAAGCTC  -0.00944 ± 0.024
58. CAGTGAGC  -0.0103 ± 0.11
59. ACCCGAAC  -0.0199 ± 0.021
60. GAGATACA  -0.0218 ± 0.03
61. CATTGGCC  -0.025 ± 0.091
62. ACATAAGC  -0.0263 ± 0.065
63. AAACCGGT  -0.0267 ± 0.078
64. ACTCAACT  -0.0287 ± 0.011
65. GATGGAAC  -0.0289 ± 0.024
66. GAAGAAGC  -0.0322 ± 0.014
67. GGGGTCGA  -0.0352 ± 0.02
68. CAATATTG  -0.0373 ± 0.099
69. GTACATGA  -0.0397 ± 0.031
70. CATTATAA  -0.0424 ± 0.007
71. ATCCAACC  -0.0425 ± 0.035
72. AAGCCACT  -0.0439 ± 0.018
73. CCGCAGGC  -0.0492 ± 0.029
74. GCCTCGGA  -0.0495 ± 0.017
75. GCGGTCCA  -0.0531 ± 0.045
76. ACGAGACT  -0.054 ± 0.066
77. AAGCAGAA  -0.0601 ± 0.054
78. CGTTCCCC  -0.0603 ± 0.012
79. ACCCTACA  -0.0616 ± 0.0058
80. GAGGGTCA  -0.0628 ± 0.053
81. CGCCCCCA  -0.0639 ± 0.047
82. GTGCACCA  -0.0665 ± 0.037
83. ATCCTAAG  -0.0679 ± 0.047
84. ACTGTAGC  -0.069 ± 0.049
85. CAACGAGG  -0.0693 ± 0.0018
86. CAGCCAGA  -0.0717 ± 0.0031
87. GCCTAGTA  -0.0767 ± 0.077
88. AGAGAGGC  -0.0778 ± 0.063
89. ACTTCAGC  -0.0821 ± 0.024
90. CCCTCCTA  -0.0828 ± 0.05
91. GGTTCTTA  -0.083 ± 0.11
92. AATGTTTG  -0.0831 ± 0.06
93. AGGGGTTG  -0.0856 ± 0.05
94. ACACAGCC  -0.0863 ± 0.057
95. CAACGAGA  -0.0903 ± 0.04
96. AAGAAATT  -0.0939 ± 0.072
97. TAGACAGA  -0.0941 ± 0.02
98. GACCTACA  -0.0944 ± 0.046
99. AAGGAGAT  -0.0983 ± 0.019
100. CCGGTTCA  -0.0987 ± 0.024
101. TAGACCCA  -0.101 ± 0.067
102. GTAACGAA  -0.103 ± 0.016
103. GATTATCC  -0.106 ± 0.0078
104. GGAATCCA  -0.107 ± 0.021
105. AGATTCAA  -0.109 ± 0.067
106. GATGCCGA  -0.111 ± 0.07
107. AAGTACTT  -0.112 ± 0.098
108. CCACGGGA  -0.1125 ± 0.00013
109. CTGCAATA  -0.116 ± 0.018
110. CGTATGCA  -0.118 ± 0.13
111. CCCATACG  -0.12 ± 0.0094
112. AAAGACGT  -0.124 ± 0.053
113. ATATCGAG  -0.13 ± 0.048
114. GGATATAA  -0.132 ± 0.0093
115. CCAATACG  -0.132 ± 0.02
116. CATCATAC  -0.133 ± 0.0042
117. CATTCGAC  -0.136 ± 0.026
118. AGCGTAGG  -0.137 ± 0.037
119. GATTTTCA  -0.137 ± 0.0079
120. ACGAAGCA  -0.138 ± 0.0035
121. AACATGCT  -0.138 ± 0.022
122. GGATTACC  -0.14 ± 0.011
123. AACATCCT  -0.1423 ± 0.00042
124. GCAAATAC  -0.144 ± 0.014
125. TCCCTCAA  -0.147 ± 0.077
126. TCTAGTCA  -0.149 ± 0.043
127. GCTGGAGA  -0.152 ± 0.05
128. GACTGAGC  -0.159 ± 0.068
129. CGGGGCCC  -0.161 ± 0.022
130. AATATCAT  -0.161 ± 0.0081
131. AAAAGAGT  -0.166 ± 0.035
132. GATACAAA  -0.167 ± 0.023
133. CCGCGGTA  -0.167 ± 0.022
134. CCGCCAGG  -0.168 ± 0.12
135. ATGGTACA  -0.17 ± 0.062
136. ATACTCAG  -0.177 ± 0.028
137. CGTCCGGC  -0.18 ± 0.034
138. TGAATGCA  -0.1842 ± 0.00048
139. GCTAGGAC  -0.185 ± 0.037
140. CCATGATA  -0.186 ± 0.057
141. GTTTCCTA  -0.192 ± 0.052
142. CATAAGCC  -0.192 ± 0.047
143. TCCTCCCA  -0.194 ± 0.047
144. AGGCCTAT  -0.196 ± 0.034
145. AATTGGGC  -0.197 ± 0.043
146. CGGCCGTA  -0.207 ± 0.021
147. GATTCGGA  -0.209 ± 0.0076
148. CCGGAATC  -0.213 ± 0.029
149. AAAATGCC  -0.216 ± 0.0041
150. AGGTACAC  -0.217 ± 0.066
151. AGGAAGGG  -0.219 ± 0.044
152. AATGCTCT  -0.22 ± 0.0091
153. AACGTCTG  -0.221 ± 0.082
154. AATCCTAA  -0.221 ± 0.074
155. AGAGTTAC  -0.223 ± 0.011
156. TTCCAGAA  -0.225 ± 0.051
157. GGCCGGGA  -0.228 ± 0.004
158. CATGGTAG  -0.228 ± 0.037
159. CGGGGCAC  -0.237 ± 0.038
160. CCTTAGAA  -0.242 ± 0.019
161. AATCTTGG  -0.244 ± 0.014
162. CATCTAGA  -0.25 ± 0.037
163. CCTACCCA  -0.25 ± 0.06
164. CATTGTAC  -0.253 ± 0.028
165. GCTCTTAC  -0.264 ± 0.04
166. GAGGTCAA  -0.265 ± 0.03
167. GATAGGAA  -0.267 ± 0.017
168. AGAGACCT  -0.284 ± 0.014
169. AGGATCAG  -0.289 ± 0.059
170. CTACGGCC  -0.3097 ± 0.0024
171. TACGTCTA  -0.334 ± 0.016
172. AAGCATAG  -0.335 ± 0.015
